The full ranking holds about 110,000 compounds; the median of “z-score” is about -0.1, and the highest 2% start at about 2. Some of the results follow. Active and inactive are the calls of the source.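 How the source made its calls: active means z-score in the third read window above 3 or below -3; inactive means the rest.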
Target: Metabotropic glutamate receptor 8 (Rattus norvegicus) (UniProt P70579)
Assay: mGluR8 Gi/Go-coupled signaling modulation – cell-based, rat, thallium flux, HTS, primary screen (AID 488969)
Conditions: HEK293 rat mGluR8, GIRK (G protein-gated inwardly rectifying potassium channel) thallium flux, FluoZin2; at 10 µM; stronger effect = higher value; submaximal glutamate (EC20) added with thallium

Chain of UniProt P70579 (P70579 whole entry, looked up): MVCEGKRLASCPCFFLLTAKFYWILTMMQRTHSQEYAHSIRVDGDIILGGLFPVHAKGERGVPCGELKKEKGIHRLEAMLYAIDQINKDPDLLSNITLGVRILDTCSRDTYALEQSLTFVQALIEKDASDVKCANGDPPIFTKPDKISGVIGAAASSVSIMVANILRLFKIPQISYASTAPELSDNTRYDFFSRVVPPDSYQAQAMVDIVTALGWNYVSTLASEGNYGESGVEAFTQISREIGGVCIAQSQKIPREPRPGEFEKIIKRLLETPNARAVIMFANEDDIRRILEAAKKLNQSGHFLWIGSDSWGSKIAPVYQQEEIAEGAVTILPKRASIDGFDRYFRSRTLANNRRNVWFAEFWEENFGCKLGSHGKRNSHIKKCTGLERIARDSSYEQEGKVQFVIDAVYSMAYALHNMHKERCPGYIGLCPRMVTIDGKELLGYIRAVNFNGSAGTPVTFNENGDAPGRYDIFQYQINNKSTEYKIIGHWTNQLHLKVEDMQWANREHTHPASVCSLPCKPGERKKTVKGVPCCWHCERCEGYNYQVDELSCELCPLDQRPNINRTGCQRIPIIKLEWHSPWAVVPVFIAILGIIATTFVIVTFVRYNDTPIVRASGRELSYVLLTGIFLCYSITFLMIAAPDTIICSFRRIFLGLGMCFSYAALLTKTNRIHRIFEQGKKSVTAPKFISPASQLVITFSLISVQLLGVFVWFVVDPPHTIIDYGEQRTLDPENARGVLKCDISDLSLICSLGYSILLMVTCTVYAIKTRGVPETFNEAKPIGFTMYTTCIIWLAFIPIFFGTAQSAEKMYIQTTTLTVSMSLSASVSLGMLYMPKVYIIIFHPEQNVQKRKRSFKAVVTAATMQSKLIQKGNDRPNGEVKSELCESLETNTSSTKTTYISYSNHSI

Compound	z-score
COC(=O)/C(=C/Nc1ccc(O)cc1)[N+](=O)[O-]	-0.539
Cc1ccc(C(C(=O)NC(C)(C)C)N(C(=O)c2csnn2)C2CC2)cc1 (stereo unspecified)	0.0476
Cc1ccc(-n2cc[nH]c2=S)cc1C	1.42
COc1ccc(Cl)cc1S(=O)(=O)N1CCN(C(=O)c2ccco2)CC1	0.155
CCC(Sc1nc(-c2ccccc2)c(C#N)c(=O)[nH]1)C(=O)Nc1nnc(C)s1 (stereo unspecified)	-0.445
CCn1c(SCc2nc(N)nc(N3CCCCC3)n2)nc2c1c(=O)n(C)c(=O)n2C	0.023
COc1ccc(NC(=O)C2CCCN2C(=O)NC2CCCCC2)cc1OC (stereo unspecified)	-0.204
Cc1ccc(C(=O)Cn2cnc3ccccc3c2=O)cc1	0.192
CC(C)(C)NS(=O)(=O)c1ccc(CCC(=O)NCc2ccco2)cc1	-0.202
CCOC(=O)c1c(N)sc(C(=O)N(C)C)c1C	-1.17
O=C(Nc1ccccc1)C(c1ccccc1)C1CCCC1 (stereo unspecified)	-0.474
COc1cc(C(=O)NCC(c2cccnc2)N2CCN(c3ccccc3)CC2)cc(OC)c1OC (stereo unspecified)	-0.219
Cc1nn(C)c(C)c1/C=N/NC(=O)C(C)(C)Oc1ccc(Cl)cc1	-0.101
CCC(CC)NC(=O)c1oc2ccccc2c1COc1ccccc1	-0.219
Oc1ccc(Oc2ncc(Cl)cc2Cl)cc1	0.0122
CCOC(=O)c1nn(-c2ccc(C)c(C)c2)c(=O)c2c(N)scc12	-0.137
CS(=O)(=O)N(CC(=O)NCc1ccc(Cl)cc1)C1CCCCC1	-0.143
CC(=O)Oc1ccc(C(C)=O)c2c1OCCO2	-0.119
CCOC(=O)c1cn(CC(=O)Nc2ccccc2C(=O)OCC)nn1	-0.238
CN(C)S(=O)(=O)c1cc(S(=O)(=O)N(C)C)c(Cl)cc1N	-0.0713
CCOC(=O)c1[nH]c2ccc(F)cc2c1NC(=O)c1cc(OC)c(OC)c(OC)c1	-0.171
CCOC(=O)N1CCN(C(=O)/C(=C/c2ccccc2OC)NC(=O)c2ccccc2)CC1	0.0249
CCCNC(=O)NC(=O)COC(=O)c1oc2ccc(OCC)cc2c1C	-0.035
CCCn1nnc(NC(=O)C(C)Oc2ccc(Cl)cc2Cl)n1 (stereo unspecified)	-1.49

Compound	z-score
CCN1CCN(C(=O)C2CCC(CNS(=O)(=O)c3ccccc3)CC2)CC1 (stereo unspecified)	-0.0637
Cc1ccc(S(=O)(=O)NC(=O)c2cc(C)n(-c3ccccc3)c2C)cc1	0.152
CC(=O)Nc1nc(C)c(S(N)(=O)=O)s1	-0.798
Nc1nc(SCC(=O)NC2CCCCCC2)[nH]c(=O)c1-c1ccccc1	-0.168
Cc1ccc(-c2nnc(-c3ccncc3)n2-c2ccc(C)cc2)cc1	-0.768
c1ccc2cc(-c3csnn3)ccc2c1	0.8
Cc1ccccc1-c1cc(C(=O)Nc2sc(C)c(C)c2C(N)=O)c2ccccc2n1	-0.19
COc1cccc(/C=C/C(=O)OCC(=O)NCC2CCCO2)c1OC (stereo unspecified)	-0.054
COC(=O)c1c(C(=O)OC)c(C)n(Cc2cccnc2)c1C	0.679
O=C1CC(C(=O)O)S/C(=N\NC(=O)c2ccccc2)N1 (stereo unspecified)	0.0537
O=C(CNC(=S)N(Cc1ccccc1F)C1CCCCC1)NC1CC1	-0.244
CCOc1cc(-c2nc3cc(C)ccn3c2NCC2CCCO2)ccc1O (stereo unspecified)	-0.709
Nc1nonc1C(=O)NC(c1ccccc1)c1ccccc1	-0.122
CCOC(=O)N1CC=C2C(C#N)=C(N)C(C#N)(C#N)[C@H](c3cccs3)[C@H]2C1	-0.568
NC(=S)N/N=C/C=C/c1ccccc1	0.0971
CCOc1cc(C(=O)O)cc(Cl)c1OCC#N	-0.377
O=C(COC(=O)CCc1c[nH]c2ccccc12)Nc1cc([N+](=O)[O-])ccc1Cl	-0.592
CC(C)(C)c1ccc(-c2nnc(SCC(=O)c3ccc4c(c3)OCCO4)o2)cc1	-0.0897
CCCn1c(SCC(=O)Nc2ccccc2C(=O)OC)nc2c1c(=O)n(C)c(=O)n2C	-1.51
Nc1nc(C2CC(=O)OC23CCCCC3)cs1 (stereo unspecified)	0.0259
N#Cc1cc(C(=O)c2cc(Br)ccc2O)cn(C2CC2)c1=O	-0.413
CCOC(=O)/C=C/C(=O)OCC(=O)Nc1ccc(Cl)cn1	-0.0462
Cc1cc(C(F)F)n2nc(C(=O)Nc3ccc(S(=O)(=O)N4CCCC4)cc3)nc2n1	-0.187
CCCN1CCN(c2nc3c([nH]2)c(=N)ncn3CC(O)CO)CC1 (stereo unspecified)	0.106

Compound	z-score
O=C1c2cccc(OCC(=O)N3CCCc4ccccc43)c2CCN1Cc1ccc(F)cc1	-0.144
COC(=O)c1cc(CSc2nc3ccccc3[nH]2)oc1C	-0.389
CCC(Sc1ncccc1C(=O)Oc1cccc([N+](=O)[O-])c1)C(=O)Nc1ccccc1OC (stereo unspecified)	-0.0708
COC(=O)CN(C(=O)CSc1nnc(-c2cccc(OC)c2)o1)c1ccc(OC)cc1	-0.667
CCOC(=O)c1c(NC(=O)c2cccnc2)sc(C)c1C	-1.59
O=C(NCC(=O)N(Cc1ccc(F)cc1)C(C(=O)NC1CCCC1)c1ccco1)c1ccco1 (stereo unspecified)	-0.201
CCc1c(C(=O)NNC(=S)NCCc2ccccc2)csc1C	0.117
Cc1cc(C)n(CC(O)Cn2c3ccccc3c3ccccc32)n1 (stereo unspecified)	0.376
O=C(OCC1CC(c2ccccc2)=NO1)c1ccc(Br)cc1 (stereo unspecified)	0.507
CCc1ccc(NC(=O)Nc2ccc3c(c2)N(C)C(=O)CS3)cc1	0.0512
C=CCOc1cccc(C2c3c(oc4ccccc4c3=O)C(=O)N2c2ccccn2)c1 (stereo unspecified)	1.94
CSCCC(NC(N)=O)C(=O)NCc1ccc(Cl)cc1 (stereo unspecified)	0.0751
COC(=O)c1ccccc1NC(=O)CSc1nnc(-c2ccc(OC)cc2)n1C	1.2
Cc1cc(C(=O)COC(=O)c2cc(Cl)ccc2N)c(C)n1Cc1ccco1	-0.451
Cc1cc2nc3c(nc2cc1C)C1(C(=O)N(C)C)CCC3(C)C1(C)C (stereo unspecified)	-0.192
Cn1c(=O)c(=O)n(C)c2cc(S(=O)(=O)N3CCCCCC3)ccc21	-1.42
CC(=O)N(C)c1ccc(NC(=O)COc2ccc(Br)cc2C)cc1	-0.519
COC(=O)CSc1ncnc2c1sc1nc(N3CCOCC3)c3c(c12)CCCC3	-0.126
CC1CCN(C(=O)CSCc2ccc(Cl)cc2)CC1	-0.284
C=CCn1c(=S)[nH]c2ccc(Br)cc2c1=O	active: 15
O=C(c1ccc(F)cc1)c1ccc(N2CCCC2)cc1	-0.699
CCOc1ccc(NC(=O)N2CCC(C(N)=O)(N3CCCCC3)CC2)cc1	-0.0579
COc1ccc(CCn2c(N3CCN(C)CC3)nc3c2c(=O)[nH]c(=O)n3C)cc1	0.18

Reference: PubChem BioAssay AID488969 (Vanderbilt High Throughput Screening Facility, 2010)
